Assay results taken from PMC8222345.
Results are given in words; binding and its absence hold for the method and conditions named. For part of these data: Binding seen in cells or lysates may run through a third protein. Some entries that bind do so weakly or less than the wild type. Blank lines part the entries; values can stand above or below the substance they belong to.

Chains of the proteins cited; added tags and fusions are not shown. Lines headed by an entry give the natural chain unless they say otherwise; changes in a name come on top. A line that says so, or that is headed by a name, gives the form on record, which may keep a tag or linker. Residues count along the entry.
UniProt O75838: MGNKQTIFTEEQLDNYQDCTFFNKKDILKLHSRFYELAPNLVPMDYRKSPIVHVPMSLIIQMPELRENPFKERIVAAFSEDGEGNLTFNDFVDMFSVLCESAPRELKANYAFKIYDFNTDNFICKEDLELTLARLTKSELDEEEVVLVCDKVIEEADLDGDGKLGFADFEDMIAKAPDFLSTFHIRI
HA-GST-Rheb Δ181–184 (Q15382, residues 1-180): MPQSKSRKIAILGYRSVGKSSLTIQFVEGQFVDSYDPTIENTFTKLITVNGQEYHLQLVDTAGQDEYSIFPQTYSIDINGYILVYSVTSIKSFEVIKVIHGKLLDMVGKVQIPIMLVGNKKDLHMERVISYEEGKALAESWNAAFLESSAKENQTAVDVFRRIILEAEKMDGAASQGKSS
HA-GST-Rheb C181S (Q15382, form named): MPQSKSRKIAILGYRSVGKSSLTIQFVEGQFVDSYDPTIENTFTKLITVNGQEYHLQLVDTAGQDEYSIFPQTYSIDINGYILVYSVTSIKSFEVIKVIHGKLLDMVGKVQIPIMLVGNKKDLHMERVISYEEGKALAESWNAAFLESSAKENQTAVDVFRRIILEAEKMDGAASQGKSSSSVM
HA-GST-Rheb D60I (Q15382, form named): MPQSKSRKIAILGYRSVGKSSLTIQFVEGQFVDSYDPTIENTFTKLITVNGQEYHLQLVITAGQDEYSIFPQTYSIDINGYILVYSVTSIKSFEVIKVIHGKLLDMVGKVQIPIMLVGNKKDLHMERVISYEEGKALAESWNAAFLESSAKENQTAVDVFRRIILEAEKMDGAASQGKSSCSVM
HA-GST-Rheb D60K (Q15382, form named): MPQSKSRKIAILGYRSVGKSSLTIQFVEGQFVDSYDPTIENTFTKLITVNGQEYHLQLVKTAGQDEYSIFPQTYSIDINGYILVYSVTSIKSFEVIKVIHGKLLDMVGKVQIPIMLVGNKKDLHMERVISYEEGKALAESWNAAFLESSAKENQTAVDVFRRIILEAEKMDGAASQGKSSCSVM
HA-GST-Rheb D60V (Q15382, form named): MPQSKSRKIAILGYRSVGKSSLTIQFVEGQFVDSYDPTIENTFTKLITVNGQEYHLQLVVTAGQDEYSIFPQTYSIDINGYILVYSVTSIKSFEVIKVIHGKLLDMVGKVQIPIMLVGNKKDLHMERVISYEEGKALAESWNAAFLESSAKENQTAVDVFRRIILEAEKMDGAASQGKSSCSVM
HA-GST-Rheb S20N (Q15382, form named): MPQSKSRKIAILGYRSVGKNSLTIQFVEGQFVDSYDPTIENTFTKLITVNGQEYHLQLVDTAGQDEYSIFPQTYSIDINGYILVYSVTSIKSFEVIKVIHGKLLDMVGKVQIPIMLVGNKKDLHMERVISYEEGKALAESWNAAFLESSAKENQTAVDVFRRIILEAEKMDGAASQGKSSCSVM
UniProt Q9NRN9: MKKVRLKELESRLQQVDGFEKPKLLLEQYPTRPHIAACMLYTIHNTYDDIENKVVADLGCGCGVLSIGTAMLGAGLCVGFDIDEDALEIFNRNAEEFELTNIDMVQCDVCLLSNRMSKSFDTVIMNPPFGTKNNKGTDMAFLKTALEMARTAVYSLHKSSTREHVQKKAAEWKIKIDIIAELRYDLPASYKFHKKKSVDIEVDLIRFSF
UniProt Q8N122: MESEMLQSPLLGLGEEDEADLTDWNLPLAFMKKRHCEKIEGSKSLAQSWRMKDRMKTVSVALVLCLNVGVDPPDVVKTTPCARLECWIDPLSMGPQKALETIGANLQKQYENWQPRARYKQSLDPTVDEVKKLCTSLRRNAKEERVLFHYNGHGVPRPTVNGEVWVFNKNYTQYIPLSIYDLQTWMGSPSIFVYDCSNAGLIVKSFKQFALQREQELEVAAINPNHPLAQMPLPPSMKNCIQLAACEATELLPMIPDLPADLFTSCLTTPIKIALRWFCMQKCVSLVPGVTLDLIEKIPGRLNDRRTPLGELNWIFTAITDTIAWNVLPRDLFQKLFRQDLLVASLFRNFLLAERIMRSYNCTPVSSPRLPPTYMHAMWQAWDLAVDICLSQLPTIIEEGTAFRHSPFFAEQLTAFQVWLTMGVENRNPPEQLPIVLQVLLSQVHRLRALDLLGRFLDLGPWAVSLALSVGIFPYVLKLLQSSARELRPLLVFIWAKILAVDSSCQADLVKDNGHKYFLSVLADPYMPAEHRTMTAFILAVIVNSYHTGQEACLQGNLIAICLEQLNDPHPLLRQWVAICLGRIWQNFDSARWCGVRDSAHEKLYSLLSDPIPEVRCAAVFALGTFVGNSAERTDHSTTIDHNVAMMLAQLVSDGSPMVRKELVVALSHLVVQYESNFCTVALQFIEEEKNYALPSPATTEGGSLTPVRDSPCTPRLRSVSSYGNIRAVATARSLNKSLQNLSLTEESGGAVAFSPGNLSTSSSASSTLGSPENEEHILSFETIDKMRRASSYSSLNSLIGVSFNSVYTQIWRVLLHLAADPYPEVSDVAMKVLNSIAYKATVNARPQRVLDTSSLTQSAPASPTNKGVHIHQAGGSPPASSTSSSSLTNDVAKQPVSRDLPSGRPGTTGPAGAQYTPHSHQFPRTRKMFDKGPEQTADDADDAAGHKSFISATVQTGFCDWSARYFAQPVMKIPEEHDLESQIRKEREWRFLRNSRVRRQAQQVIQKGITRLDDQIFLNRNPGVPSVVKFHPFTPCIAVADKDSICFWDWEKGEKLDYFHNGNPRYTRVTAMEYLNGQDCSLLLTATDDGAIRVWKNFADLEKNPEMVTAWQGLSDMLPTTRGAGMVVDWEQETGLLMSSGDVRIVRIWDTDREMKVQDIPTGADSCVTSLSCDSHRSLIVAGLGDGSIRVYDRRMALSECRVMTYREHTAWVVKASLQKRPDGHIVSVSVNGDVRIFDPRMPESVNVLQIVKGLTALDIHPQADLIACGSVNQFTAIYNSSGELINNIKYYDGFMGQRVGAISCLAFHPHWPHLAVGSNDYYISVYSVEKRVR

Key:
tdTomato-CIB2 (WT) = tdTomato-CIB2 (WT) (UniProt O75838); assay: co-IP; HEK293 cells transfected with the indicated plasmids (PEI), lysed 36 h later in IP buffer (0.3% CHAPS, 40 mM HEPES, 2.5 mM MgCl2); HA or GST beads, 3 h or overnight at 4 °C, four washes, immunoblot; in Fig. 8f also cells treated with the farnesyl transferase inhibitor lonafarnib (1000 nM)
HA-GST-Rheb (WT) [1] = biological target: HA-GST-Rheb (WT) (UniProt Q15382); assay: pull-down; HA-GST-Rheb (WT) from HEK293 lysate immobilised on GST beads, washed, loaded with 1 mM GDP (1 h, 37 °C, stopped with 60 mM MgCl2); cleared tdTomato-CIB2 lysate added, rotation overnight, immunoblot; only the target purified
HA-GST-Rheb (WT) [2] = biological target: HA-GST-Rheb (WT) (UniProt Q15382); assay: pull-down; HA-GST-Rheb (WT) from HEK293 lysate immobilised on GST beads, washed, loaded with 100 µM GTPγS (1 h, 37 °C, stopped with 60 mM MgCl2); cleared tdTomato-CIB2 lysate added, rotation overnight, immunoblot; only the target purified
HA-GST-Rheb (WT) [3] = biological target: HA-GST-Rheb (WT) (UniProt Q15382); assay: co-IP; HEK293 cells transfected with the indicated plasmids (PEI), lysed 36 h later in IP buffer (0.3% CHAPS, 40 mM HEPES, 2.5 mM MgCl2); HA or GST beads, 3 h or overnight at 4 °C, four washes, immunoblot; in Fig. 8f also cells treated with the farnesyl transferase inhibitor lonafarnib (1000 nM)
HA-GST-Rheb C181S = HA-GST-Rheb C181S (UniProt Q15382); assay: as above
HA-GST-Rheb D60I = HA-GST-Rheb D60I (UniProt Q15382); assay: as above
HA-GST-Rheb D60K = HA-GST-Rheb D60K (UniProt Q15382); assay: as above
HA-GST-Rheb D60V = HA-GST-Rheb D60V (UniProt Q15382); assay: as above
HA-GST-Rheb S20N = HA-GST-Rheb S20N (UniProt Q15382); assay: as above
HA-GST-Rheb Δ181–184 = HA-GST-Rheb Δ181–184 (UniProt Q15382); assay: as above
[4] = biological target: GFP-hCIB2 (calcium and integrin binding protein 2) (human) (UniProt O75838); assay: nanoscale pulldown 2.0 (NanoSPD); COS-7 cells transfected with 1 µg each of nanoTRAP (myo10 HMM-GFP nanobody), GFP-tagged bait and prey; co-accumulation of the prey with the bait at filopodia tips in fixed cells, confocal microscopy, prey/bait fluorescence ratio
GFP-hMETTL5 (human) = GFP-hMETTL5 (human) (UniProt Q9NRN9); assay: as above
[5] = biological target: GFP-hCIB2 (calcium and integrin binding protein 2) (human) (UniProt O75838); assay: nanoscale pulldown 2.0 (NanoSPD); COS-7 cells with nanoTRAP, GFP-hCIB2 (bait) and both myc-mTOR and HA-mCherry-Raptor expressed together; accumulation at filopodia tips

binding (tdTomato-CIB2 (WT)): binds
Substance: Raptor (exogenously expressed in HEK293 cells) (from UniProt Q8N122 1-1335)

binding (HA-GST-Rheb (WT) [1]): binds
binding (HA-GST-Rheb (WT) [2]): binds
binding (HA-GST-Rheb (WT) [3]): binds
binding (HA-GST-Rheb C181S): binds
binding (HA-GST-Rheb D60I): binds
binding (HA-GST-Rheb D60K): binds
binding (HA-GST-Rheb D60V): binds
binding (HA-GST-Rheb S20N): binds
binding (HA-GST-Rheb Δ181–184): binds
Substance: tdTomato-CIB2 (WT) (from UniProt O75838 1-187)

binding [4]: binds
binding (GFP-hMETTL5 (human)): no binding
Substance: HA-GST-Rheb (prey in COS-7 cells) (from UniProt Q15382 1-184)

binding [5]: binds
binding [4]: binds
binding (GFP-hMETTL5 (human)): no binding
Substance: HA-mCherry-Raptor (from UniProt Q8N122 1-1335)
